# About 200 (0.47%) of roughly 43,000 compounds were called active. Not shown: some 12% with an inconclusive outcome. The call rests on the fitted dose curve; in most records, active means well fitted cell-killing curve with a large enough effect; inconclusive means small, poorly fitted or top-dose-only effect, or effect the other way; inactive means flat fitted curve, though single readings scatter. The list shows a part of the results.
# Experiment: Cell viability qHTS assay in S16 Pmp22-F2sN cells; further: nearly all actives have a fitted effect of over 65% in size
# Conditions: S16 Pmp22-F2sN Schwann cells viability, CellTiter-Glo, 24 h; series mostly up to 57.5 µM; activity change, negative = cytotoxicity: at the top concentration
# Procedure, shortened: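 Used to flag compounds lowering reporter output through toxicity, this quantitative HTS measures ATP-based CellTiter-Glo luminescence in S16 Pmp22-F2sN Schwann cells after 24 h compound exposure at 37C.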
# On the % scale 0 is the no-effect control and ±100 the full control effect.
row,Structure (SMILES),"activity change, negative = cytotoxicity"
1,Cc1ccc(CNC(=O)Cn2cc3c(n2)-c2c(oc(C(=O)N4CCOCC4)c2C)CC3)cc1,inactive: -11.8%
2,Cc1cc(C)c2oc(C(=O)Nc3c(C(=O)c4ccccc4)oc4ccccc34)cc(=O)c2c1,inactive: 0.253%
3,O=S(=O)(NCC(c1ccco1)N1CCOCC1)c1ccc(F)cc1 (stereo unspecified),inactive: 14.4%
4,COc1ccc(OC)c(NC(=O)N2CC(C)Oc3ccc(C)cc32)c1 (stereo unspecified),inactive: -0.473%
5,Cc1ccc(C(=O)c2cn(CC(=O)NCc3ccccc3)c3nc(C)ccc3c2=O)cc1,inactive: 3.55%
6,Cc1cc(C)n(CC(=O)Nc2cc(F)ccc2F)c(=O)c1C#N,inactive: 12.6%
7,COc1ccc(C(=O)Nc2nc(-c3nnn(-c4ccc(F)cc4F)c3C)ns2)cc1,inactive: -18.9%
8,COc1cccc(C(=O)Nc2ccc3nc4n(c(=O)c3c2)CCCCC4)c1,inactive: 0.492%
9,Cc1ccc(O)c(Nc2nc3ccccc3c3nncn23)c1,inactive: 6.42%
10,CC(C)c1nc2ccc(C(=O)NCCCN3CCN(c4ccccc4)CC3)cc2o1,inactive: -8.68%
11,O=C(CN1CCN(Cc2ccc(F)cc2Cl)C1=O)NCCc1ccc(Cl)cc1,inactive: 11.4%
12,CCOc1ccc(C(=O)Nc2ccc3oc(-c4cccc5ccccc45)nc3c2)cc1,inactive: 11.3%
13,Cc1ccc(-c2nc(C)c(CCNC(=O)C(=O)Nc3cc(C)ccc3C)s2)cc1,inactive: 22.3%
14,Cc1csc2nc(-c3ccc(NS(=O)(=O)c4cccc(F)c4)cc3)cn12,inactive: 10.3%
15,CCc1ccccc1NC(=O)Cn1c(=O)n(Cc2ccccc2)c(=O)c2c(C)c(C(=O)N(C)C)sc21,inactive: 3.42%
16,Cc1csc2nc(-c3cccc(NS(C)(=O)=O)c3)cn12,inactive: 0.126%
17,Cc1ccccc1CN1c2ccccc2-c2nc(SCC(=O)c3ccc(Cl)cc3)ncc2S1(=O)=O,inactive: 4.53%
18,COCCCNC(=O)CCCN1C(=O)CCn2nc(-c3cccn3C)cc21,inactive: 7.69%
19,CSc1ncc(Cl)c(C(=O)Nc2c(C(=O)Nc3cccc(C)c3)oc3ccccc23)n1,inactive: 7.1%
20,Cc1ccc(S(=O)(=O)c2c(Nc3ccc(C)c(C)c3)sc(C(=O)c3ccc4c(c3)OCO4)c2N)cc1,inactive: -1.94%
21,Cc1ccccc1-c1noc(-c2ccc(N3CCC(C)CC3)c([N+](=O)[O-])c2)n1,inactive: 8.87%

row,Structure (SMILES),"activity change, negative = cytotoxicity"
1,Cc1ccccc1CNC(=O)c1ccc(NC(=O)N2CCCCc3ccccc32)cc1,inactive: 1.25%
2,COc1cc(CNCCSc2nnnn2C)ccc1OCc1ccccc1C,inactive: 0.0651%
3,CCCOc1ccc(C2=NC(c3ccncc3)=Nc3ccc(C)cc3N2)cc1,inactive: 0.447%
4,Cc1ccc(-c2n[nH]c3c2C(c2ccccc2Cl)N(c2ccc(C(=O)O)cc2)C3=O)cc1 (stereo unspecified),inactive: 9.39%
5,Cc1oc2ccc(NS(=O)(=O)c3ccc(F)cc3)cc2c1C(=O)O,inactive: 14%
6,COc1ccc(CCNC(=O)C(=O)Nc2ccc(C)c(C)c2)cc1,inactive: 16.7%
7,CC1CCN(S(=O)(=O)c2cc(C(=O)NCc3ccc(N(C)C)cc3)n(C)c2)CC1,inactive: 5.03%
8,O=C(CN1C(=O)CC(c2ccco2)Sc2ccccc21)Nc1cccc(C(F)(F)F)c1 (stereo unspecified),inactive: -12.7%
9,O=C(CSc1nc2c(c(=O)[nH]1)CCCC2)Nc1ccccc1C(F)(F)F,inactive: 2.14%
10,CC(C)c1ccc(S(=O)(=O)c2cn(CC(=O)Nc3ccc(F)cc3)c3ccccc3c2=O)cc1,inactive: 3.76%
11,CC(=O)Nc1ccc(S(=O)(=O)NC2=NCN(C(C)C)CN2)cc1,inactive: -5.43%
12,COc1ccc(C(=O)N2CC(=O)Nc3ccc(C)cc3C2c2ccc(F)cc2)c(OC)c1 (stereo unspecified),inactive: -0.0822%
13,Cc1cc(F)ccc1NC(=O)C(C(C)C)N1Cc2ccccc2C1=O (stereo unspecified),inactive: 0.0389%
14,COc1ccccc1NC(=O)c1nnn(-c2ccc(F)cc2)c1C,inactive: 12%
15,COc1ccc(CNC(=O)c2ccc3c(c2)N(Cc2ccccc2)C(=O)c2ccccc2S3=O)cc1 (stereo unspecified),inactive: 3.57%
16,CCC(=O)N1CCc2cc(Br)cc(S(=O)(=O)CCC(=O)NCCc3ccc(C)cc3)c21,inactive: 15.2%
17,CN(CC(=O)NCc1ccccc1Cl)S(=O)(=O)c1ccc2c(c1)c(=O)n(C)c(=O)n2C,inactive: 9%
18,Cc1ccc(Cl)cc1N1CCN(C(=O)Cc2c(C(=O)O)c(C)cn2C)CC1,inactive: 1%
19,Cc1sc2ncn(CC(=O)N3CCN(c4ccccc4F)CC3)c(=O)c2c1S(=O)(=O)N1CCN(c2ncccn2)CC1,inactive: 3%
20,O=c1c(-c2cc(-c3ccc(Cl)cc3)nc3c2COc2ccccc2-3)coc2ccccc12,inactive: 21.6%
21,COC(=O)c1ccc(NC(=O)CCn2cccn2)cc1,inactive: -2.46%

row,Structure (SMILES),"activity change, negative = cytotoxicity"
1,c1ccc(CSc2nnc(C3CCNCC3)o2)cc1,inactive: 2.21%
2,CCOc1ccc(-c2cc3c(=O)n(Cc4nc(-c5ccc(OC)cc5OC)oc4C)ccn3n2)cc1Cl,inactive: -0.0038%
3,COc1cccc(Oc2nc3c(c(=O)n(Cc4ccccc4Cl)c(=O)n3C)n2C)c1,inactive: -16%
4,O=c1[nH]c2ccc(NCc3ccc(-c4ccccc4F)o3)cc2[nH]1,inactive: -14.7%
5,Cc1ccc(C(C)C)c(OCC(=O)Nc2cccc(-c3nc4ncccc4o3)c2)c1,inactive: -4.33%
6,Cc1ccc2oc(=O)c3cnn(CC(=O)N4CCN(c5cccc(C(F)(F)F)c5)CC4)c3c2c1,inactive: 11%
7,CCC(C)NC(=O)CSc1nc2c(sc3ccccc32)c(=O)n1CCc1ccccc1 (stereo unspecified),inactive: -13.2%
8,O=S(=O)(c1cccc(C(F)(F)F)c1)N1CCC(Oc2ccc(-n3cnnn3)cc2)CC1,inactive: -2.4%
9,CCN(CC)S(=O)(=O)c1ccc2c(c1)N(CC(=O)NCc1ccc(F)cc1)C(=O)CO2,inactive: 10%
10,Cc1cc(N2CCN(c3cccc(C(F)(F)F)c3)CC2)n2nc(-c3ccccc3C)nc2n1,inactive: 1.76%
11,CN(C)c1ccc(C2CC(c3c(O)n(C4CCCCC4)c(=O)[nH]c3=O)=Nc3ccccc3S2)cc1 (stereo unspecified),inactive: -0.519%
12,COc1ccc(NC(=O)C2=C(C)Nc3c(C(=O)Nc4ccc(C)cc4)cnn3C2c2cc(OC)ccc2OC)cc1 (stereo unspecified),inactive: -3.14%
13,COc1cccc(NC(=O)Cn2c(=O)n(Cc3ccccc3)c(=O)c3c2c2cc(C)ccc2n3C)c1,inactive: -12.4%
14,COc1cc(OC)c(OC)cc1CN1CCc2nc(N3CCN(c4ccccc4F)CC3)ncc2C1,inactive: -10.3%
15,Cc1ccc2c(C)c(C(=O)N3CCC(c4nc5ccccc5s4)CC3)oc2c1C,inactive: 10.3%
16,O=C(Nc1ccccc1C(F)(F)F)Nc1c[nH]c(=O)[nH]c1=O,inactive: -0.74%
17,COc1ccc(Nc2c(-c3ccco3)nc3cccc(C)n23)cc1,inactive: 1.72%
18,Cc1ccc(OCC(=O)N(Cc2ccc(Cl)cc2)CC2CCCO2)cc1C (stereo unspecified),inactive: 7.83%
19,COc1ccc(C2C=C(c3ccccc3)Nc3nc(NS(=O)(=O)c4ccc(C)cc4)nn32)cc1 (stereo unspecified),inactive: 1.09%

# Reference: PubChem BioAssay AID1508642 (National Center for Advancing Translational Sciences (NCATS), 2021)
